The results in this text go back to article PMC12136788.

Sequences and labels used below:
T1: UNK ZnF1-3 (human, UniProt Q9C0B0 31-174)
T1 sequence: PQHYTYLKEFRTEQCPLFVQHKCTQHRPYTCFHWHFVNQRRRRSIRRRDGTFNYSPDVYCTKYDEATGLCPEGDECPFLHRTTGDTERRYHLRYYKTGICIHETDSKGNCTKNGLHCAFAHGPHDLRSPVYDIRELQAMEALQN

B1: chr16:1877921:1877922:+_ENSG00000180185_ENST00000427358|hu_hu|FALSE|FALSE (ssRNA)
RNA: GGGAGUUCUACAGUCCGACGAUCAUUGUGACAUUUAAUAGCCGUUGCUUGCUCUUGUCUUGCUCCCUUCUCUCUCGAAACUUGUUAAGAAAUAACUCAAUAUUCUGGCUUUUCCACUUUAAAUGUCAUACUGACCAGCCCGUGCAACAGAGGAUUGAGCAUCA
B2: chr11:87793471:87793472:-_ENSMUSG00000020483_ENSMUST00000020775|mus_mus|mus_mus_mus_hu_False|28_78 (ssRNA)
RNA: GGGAGUUCUACAGUCCGACGAUCUGGACUUGAAAAUAAAAGAAUAAGCUGGAUCCCCCCACCCCUUACAUUGUCAACCCUACACGAGAGUUUUGAAGGCGACUCAUGAAUCAGCAGAGCUCAAACGGCAAUGACCACCCCACCCAACAGAGGAUUGAGCAUCA
B3: chr12:111951244:111951245:-_ENSG00000204842_ENST00000535949|hu_mus|FALSE|FALSE (ssRNA)
RNA: GGGAGUUCUACAGUCCGACGAUCCCUUGGAACCCCACUGACCACUGAGGACCACGUUCCCCCUGCAGGACUGGUCCUUGCCACUGGAGGAGCAGCUGCUUCACUUGGGGGAUUGUGGGAUACAAAUUCUAGGCCACUAGACAUCAACAGAGGAUUGAGCAUCA
B4: chr5:23024286:23024287:-_ENSMUSG00000062604_ENSMUST00000088392|mus_mus|FALSE|FALSE (ssRNA)
RNA: GGGAGUUCUACAGUCCGACGAUCGCAAGCUGUACUCCAAAUGUCUGCAGGUGUGCUGUAGCCUGCUCCUAUUAAAACCUCUAUGGACCUAUACUGACGUGUCUGGAUAUCCUCUGUGAAAUGUUUAUGCACCCAACAAGCAUUCAACAGAGGAUUGAGCAUCA
B5: chr4:25749455:25749456:-_ENSG00000091490_ENST00000264868|hu_hu|hu_hu_hu_mus_False|1_48 (ssRNA)
RNA: GGGAGUUCUACAGUCCGACGAUCGCACUAUGACCUCUAGAAAAAUCCACAGGGGGAAAAAAUGUAAACCAAUGUACAAUGUUAUCGCCCUCCCUGCGUGUGGAGUGUUUGUCUCAAGGCUCCUUCUAGCUGCUGGACUGCUAGCAACAGAGGAUUGAGCAUCA
B6: chr2:27599549:27599550:+_ENSG00000115234_ENST00000233575|hu_hu|FALSE|FALSE (ssRNA)
RNA: GGGAGUUCUACAGUCCGACGAUCCAGACAUCCAAGCAGUGGAGAUUACAGAUCCUCAUCUCCAAUGCCCUCGAAGGCGAAAUUGCCGUGGACAUCACUGGCACUGGCAUCUGUGCUGGGACUGCCAAUUCCCCGCAAGCUCACCAACAGAGGAUUGAGCAUCA
B7: chr17:60770872:60770873:+_ENSG00000011028_ENST00000303375|hu_hu|hu_hu_hu_mus_True|8_8 (ssRNA)
RNA: GGGAGUUCUACAGUCCGACGAUCUCUUUAAAAAAAAAAAAAAAAAGACAAACAAUAAUAGCACAUUUCGAGAAUCAAGAACUACAAUAGAGGGUCCGCUUUGAGUUUUUGUUCACAUCGUCCUGCAACGCUGUCGCGGGACUGCAACAGAGGAUUGAGCAUCA
B8: 31538562_31538682_760_CDS_ENSG00000082213_ENST00000325366|human|control|control (ssRNA)
RNA: GGGAGUUCUACAGUCCGACGAUCAGUCUGGCAUUCCUGAUUUUCAGAAGAACAUGAACAUGAUGGUUCUAGGCAAGUCUGGUCACUUCUCUGUGUUGCUGUGUCCUUUUCCAGUCCUUCUGAAGAAGAGUCACAGUUAGUAGACAACAGAGGAUUGAGCAUCA
B9: chr16:2758876:2758877:+_ENSG00000167977_ENST00000301738|hu_mus|motif|central (ssRNA)
RNA: GGGAGUUCUACAGUCCGACGAUCAAGUUUUAAUAUCAUUAAAUUAAAAAAACAGAAACAAAAACCCCCAGAAGCCGGUCGGUUGUCAAAGUCAUAAAUGAAGCAAUGCUGAGUGUCCAGCCACUCCCCAGAGCAUCCCCAUGGCAACAGAGGAUUGAGCAUCA
B10: chr8:27667896:27667897:-_ENSG00000168078_ENST00000301905|hu_mus|FALSE|FALSE (ssRNA)
RNA: GGGAGUUCUACAGUCCGACGAUCAGCUUCAACGAUGUGUGCAGCAGACGGGCGAUCUUUAGGAUCCUCAUUAGUGCACACACAGAAGAGUUCAAUGGCCUUCUGGUAGGAGUCAUCCAGCUCUUCCAUGUUGAUGGAUGGCCUCAACAGAGGAUUGAGCAUCA
B11: 87446211_87446331_1862_CDS_ENSG00000140948_ENST00000268616|human|control|control (ssRNA)
RNA: GGGAGUUCUACAGUCCGACGAUCGGGUGCGGACGCGGGCAGCACGUCCAUCAUGGCGCUGCCAAAGCUCUUGUCCACUUUCAUGCUGCUUCUUGGUCCAGAUCCUUUAUUCCUUUCUUCUAGAGACAAAAGUGAGUGCACAGACAACAGAGGAUUGAGCAUCA
B12: 193605883_193606003_5042_3pUTR_ENSMUSG00000026623_ENSMUST00000110855|mouse|control|control (ssRNA)
RNA: GGGAGUUCUACAGUCCGACGAUCGCCGGGAACUAGCACACCUGCUACACAGUCUCAUCUGCCUCUCUCUUGCCUGCUGAUAGCUAUAAGGCCCAGAGCACUUGGAGGGCAAAAUUCCCAUCAAAGGCCAUUACCAUUCAUCCUCAACAGAGGAUUGAGCAUCA
B13: 98513226_98513889_1220_3pUTR_ENSG00000140450_ENST00000268042|human|control|control (ssRNA)
RNA: GGGAGUUCUACAGUCCGACGAUCGGGUUGAGGGUAAGGAGGAAUGUGUCUAGAGAAUUCUUCCUCUGAUACCACAUCUGCAUAAUUUGGUGGUGCUUCAGGCUGCUCUGGCAGGGUCAGUGUCAACCAGCUCAUAUCCAUACUCAACAGAGGAUUGAGCAUCA
B14: chr15:51794541:51794542:-_ENSMUSG00000022314_ENSMUST00000022927|mus_hu|motif|central (ssRNA)
RNA: GGGAGUUCUACAGUCCGACGAUCCUGAAGUCUGAGUUUCAAAAGUGAUUUUUUUUUCCCACAAAAGUUUCAACACUUAAGCGGGAACUUUCAGUGUUAACUUUGCCCUAAAAAGUUAAGACAUUCUGAUAAUCAUAACAGUCACAACAGAGGAUUGAGCAUCA
B15: chr16:94913618:94913619:+_ENSMUSG00000022897_ENSMUST00000122284|mus_mus|motif|central (ssRNA)
RNA: GGGAGUUCUACAGUCCGACGAUCAGUCAUGUAAUGUGCAGGACCUGUAUUAGCAGAAAAUUGGUAUGUUGGAUGUCCAGCGGUGCCAGUCUCUUGGCGGGGAUUGGAGUAGACGGUCAAAUUAACGUCCAUAGCUCCAUUCUGCAACAGAGGAUUGAGCAUCA
B16: chr2:160605069:160605070:+_ENSG00000136536_ENST00000409591|hu_hu|FALSE|FALSE (ssRNA)
RNA: GGGAGUUCUACAGUCCGACGAUCAGCUCCAAGAGGAUCAUUCUGUGCUUCAAGGUGAACCACUUCAUUUGAUUCUCUUCUAAAAAUAUGAGAUCUAGAUGAUGUAUCAGAGGUAGGUAUCCUUGAAGAUUCAUCUCUUCCCUCCAACAGAGGAUUGAGCAUCA
B17: 49445221_49445341_2184_CDS_ENSG00000167548_ENST00000301067|human|control|control (ssRNA)
RNA: GGGAGUUCUACAGUCCGACGAUCCUCAGGCCGGGGUGACAGGUGCGGCCCCUCGGACCGGGGGCAGAGUUGCGGCUCCUCAGGUAGUGGCAACAGGGGUGACUCCUCCAGCGGCAGGGACAUGAGCGAGUCCUCCGGUGGUGGCAACAGAGGAUUGAGCAUCA
B18: 31822757_31825123_730_3pUTR_ENSMUSG00000053134_ENSMUST00000065388|mouse|control|control (ssRNA)
RNA: GGGAGUUCUACAGUCCGACGAUCCUGUCACAGGCUCUCCUUUCCCGCGGUAAAAGUCACUCUCUGGGUCACUGUGCCGGAUCUGGAAUGGAGCAUUGGGAUUUUUACAGUCUAAAGGCUGGAGGUCAUCAGGGAGAGGAGGUGCAACAGAGGAUUGAGCAUCA
B19: chr4:57314706:57314707:+_ENSG00000128050_ENST00000264221|hu_mus|hu_hu_hu_mus_True|38_38 (ssRNA)
RNA: GGGAGUUCUACAGUCCGACGAUCCAGAAUUUCAAAAAUAGCUUGUGUGGCAUGACUCAUGAUGUCCACUUCAGUCUGCCCUAUAACAAGGCCAGCAAAGCAAAAUUUUGCAGCAAUGAGUUGCUCCUCAGACCACUGUGGAUCCAACAGAGGAUUGAGCAUCA
B20: chr3:148802587:148802588:-_ENSG00000071794_ENST00000310053|hu_mus|hu_hu_hu_mus_False|98_108 (ssRNA)
RNA: GGGAGUUCUACAGUCCGACGAUCUCCAACCACAUGACCUCUCAAACUUCCAAAUAAAACCAAAUCUUGCUCUUCAUCACUCGUUAGGAAGUCAUCUGGAGGAAUAAUGUCUUGGAAUUCAAAAUGUGGCAAGAAAGUUGAGUACAACAGAGGAUUGAGCAUCA
B21: chr1:58468927:58468928:-_ENSMUSG00000026034_ENSMUST00000148330|mus_mus|mus_mus_mus_hu_False|28_78 (ssRNA)
RNA: GGGAGUUCUACAGUCCGACGAUCAAUUACUGAAAAAGAUGUUCAUUACCUUAGCUAGGCCAUGUAUGAACCAAAUUACCCAAACAAAAUAAACAUGGCAAUAUAAAAAGCUAUACAAUUUACAAAGCUGUACAAAAUAACUUACAACAGAGGAUUGAGCAUCA
B22: chr4:148551591:148551592:-_ENSMUSG00000063077_ENSMUST00000060537|mus_hu|mus_mus_mus_hu_False|78_78 (ssRNA)
RNA: GGGAGUUCUACAGUCCGACGAUCACCUGACAAAAUUAAAUAUCCCUGUAAAUUAGACAAGAAGCAGCAGGCAACAAAGUCUUUGCUUUGGAAUAUGUGCCAGGAAAAGUCAUCUUGUUUUUAGAUCUCAAGAGACAGUUCACACAACAGAGGAUUGAGCAUCA

The list shows a part of the results.

The target in this test is T1, UNK ZnF1-3. The experiment in a line: nsRBNS (natural sequence RNA bind-n-seq); RBNS binding buffer (assumed for nsRBNS): 25 mM Tris pH 7.5, 150 mM KCl, 3 mM MgCl2, 0.01% Triton X-100, 500 ug/ml BSA, 20 U/ml SUPERase-In, 4 C; UNK is unkempt and MSI1 is Musashi-1; names of the RNAs are library labels; protein concentration not given here; high values mean tight binding.
Turning to B1, the binding signal is 0.711 enrichment R.

Consider B2, for which the binding signal was 1.46 enrichment R.

For B3, the binding signal came out at 0.788 enrichment R.

As to B4, the binding signal worked out at 0.97 enrichment R.

B5 came in with a binding signal of 0.878 enrichment R.

Take B6: the binding signal came out at 0.972 enrichment R.

Consider B7, for which the binding signal is 2.1 enrichment R.

Molecule B8 registered a binding signal of 0.666 enrichment R.

B9 had a binding signal of 2.78 enrichment R.

B10 yielded a binding signal of 0.396 enrichment R.

As for B11, the binding signal is 0.748 enrichment R.

As for B12, the binding signal amounted to 1.22 enrichment R.

Consider B13, for which the binding signal was 1.09 enrichment R.

Molecule B14 had a binding signal of 0.511 enrichment R.

With B15, the binding signal was 0.923 enrichment R.

B16 came in with a binding signal of 1.07 enrichment R.

B17 showed a binding signal of 1.37 enrichment R.

As to B18, the binding signal turned out to be 1.66 enrichment R.

B19 gave a binding signal of 0.975 enrichment R.

As for B20, the binding signal is 1.25 enrichment R.

With B21, the binding signal came to 0.897 enrichment R.

The molecule B22 displayed a binding signal of 1.21 enrichment R.
